From PubChem BioAssay AID2675 (National Center for Advancing Translational Sciences (NCATS), 2010)
Hit rate of the full screen: of about 280,000 compounds, about 100 (0.036%) were called active. This list was built around the results that the source calls inconclusive (neither active nor inactive); the mix of calls is not that of the screen. Calls come from the whole dose curve; as a rule, active = well fitted inhibition curve with a large enough effect in the signal ratio, with a control signal flat (not every such curve was filed as active); inconclusive = small, poorly fitted or top-dose-only effect, or effect the other way, or a change in a side signal; inactive = no such curve, though single readings can be large or run the other way; the % refers to the signal ratio. Potencies of inconclusive entries are doubtful fits and often do not repeat. “Side channel” marks fits to a control or component signal instead of the main read-out.

Biological target: Muscleblind-like protein 1 (Homo sapiens) (UniProt Q9NR56)
Sequence of UniProt Q9NR56 (Q9NR56 whole entry, looked up): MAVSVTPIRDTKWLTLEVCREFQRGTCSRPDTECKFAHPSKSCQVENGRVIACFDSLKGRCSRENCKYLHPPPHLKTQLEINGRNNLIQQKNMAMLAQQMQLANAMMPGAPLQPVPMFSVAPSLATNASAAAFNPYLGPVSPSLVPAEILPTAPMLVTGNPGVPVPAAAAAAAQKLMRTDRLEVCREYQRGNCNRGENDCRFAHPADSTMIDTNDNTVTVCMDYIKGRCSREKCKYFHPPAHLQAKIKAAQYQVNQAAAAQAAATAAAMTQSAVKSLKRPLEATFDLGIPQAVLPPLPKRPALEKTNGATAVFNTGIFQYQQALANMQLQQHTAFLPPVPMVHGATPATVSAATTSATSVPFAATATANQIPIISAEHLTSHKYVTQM
Experiment: qHTS Assay for Inhibitors of MBNL1-poly(CUG) RNA binding
Details: TR-FRET MBNL1-His/biotin-(CUG)12 binding, 665/545 ratio; series mostly up to 57.5 µM
Method in brief: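 TR-FRET readout: Ex 340 nm, 665/545 nm emission ratio, normalized to buffer-only (basal) and MBNL1-(CUG)12 controls. Complex of MBNL1-His with Biotin-(CUG)12, compounds 92 nM–58 uM, incubated 60 min at room temperature.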
Potency is the fitted concentration of half-maximal effect; tags give direction and shape of the fitted curve or compound fluorescence and quenching.

| Structure (SMILES) | Potency |
| --- | --- |
| COC(=O)CCCC1=CC2=C(c3ccccc3)C(=O)C(C)(OC(=O)C3CCCC3)C(=O)C2=CN1Cc1ccc(OC)cc1 (configuration not stated) | inconclusive: 31.6 µM [quencher, side channel, single point] |
| CCOC(=O)N/N=C\c1ccc([N+](=O)[O-])s1 | inconclusive: 2.82 µM [quencher, side channel, partial curve] |
| N#Cc1c(N)n(Cc2ccccc2)c(=O)c2cc([N+](=O)[O-])ccc12 | inconclusive: 3.16 µM [quencher, side channel, single point] |
| Cc1cc(=O)oc2c3c4c(cc12)OCCN4CCC3 | inconclusive: 28.2 µM [quencher, side channel, single point] |
| CC(C)N1CCc2c(sc(NC(=O)c3ccc(S(=O)(=O)N4CCc5ccccc54)cc3)c2C(N)=O)C1 | inactive |
| Cn1c2ccccc2c2nnc(SCC(=O)Nc3cccc(O)c3)nc21 | inconclusive: 7.94 µM [quencher, side channel, full curve] |
| COc1cc([N+](=O)[O-])cc2sc(NC(=O)C3CC3)nc12 | inactive |
| COc1ccc(C(=O)N/C(=C/c2cccs2)C(=O)NC(C)(C)C)cc1OC | inconclusive: 35.5 µM [quencher, side channel, single point] |
| COc1ccccc1C(=O)N/C(=C/c1cccc([N+](=O)[O-])c1)C(=O)Nc1cccc(C(=O)O)c1 | inconclusive: 8.91 µM [quencher, side channel, partial curve] |
| COc1ccccc1NC1=C(C)C(=O)CC1 | inactive |
| O=[N+]([O-])c1c(Nc2ccccc2O)ccc2nonc12 | inconclusive: 8.91 µM [quencher, side channel, partial curve] |
| COc1ccc(N2C(=O)/C(=C/N(C)C)NC2=S)cc1 | inconclusive: 8.91 µM [quencher, side channel, partial curve] |
| O=C(N/N=C/c1cccn1-c1ccc([N+](=O)[O-])cc1)c1cccnc1 | inconclusive: 15.8 µM [quencher, side channel, partial curve] |
| Cn1c(/C=C/c2ccc([N+](=O)[O-])o2)nc2ccccc2c1=O | inconclusive: 3.16 µM [quencher, full curve, poor fit] |
| O=C(O)CC/C(=C\c1ccc(N2CCCC2)c([N+](=O)[O-])c1)c1nc2ccccc2s1 | inactive |
| CCOC(=O)C1=C(C)OC2(O)c3ccccc3C(=O)C12O (configuration not stated) | inactive |
| COc1ccccc1-c1c(C)nn2c(N3CCCCCC3)cc(C)nc12 | inactive |
